About 1,700 (3.3%) of roughly 52,000 compounds were called active. Rule as the data show it: active = survival mostly below about 52% (no sharp cut-off); inactive = mostly above about 56%. The list shows a part of the results.

The subject of this test is Wild type. Description: S. aureus survival, RN4220 and DeltatarO strains – OD600, teichoic acid synthesis inhibitors, primary screen (AID 463173). The following applies: S. aureus RN4220 wild type/DeltatarO growth, OD600, 18 h, hits give low values, screened at 18.75 µg/mL (by protocol).
Consider `CCOc1ccccc1NC(=O)Cc1noc2ccc(C)cc12`, for which the survival is inactive: 82%. In the case of `CCOc1ccc(CNS(=O)(=O)c2ccc(-c3coc(C)n3)cc2)cc1`, the survival is inactive: 115%.

`COc1ccc(N2CCN(CCCNC(=O)Cn3c(-c4cccs4)cc4ccccc43)CC2)cc1`: the survival is inactive: 86%. On to `COc1ccc2nc(N(Cc3cccnc3)C(=O)C3CCCCC3)sc2c1`, for which the survival is inactive: 74%. As for `COc1cccc(C2C(C(=O)Nc3ccc(C)cc3C)=C(C)Nc3nc4ccccc4n32)c1OC` (stereo not drawn), the survival was inactive: 76%. As for `CC1(C)C(=O)N(CC(=O)Nc2ccc(Br)cc2F)c2ccccc21`, the survival was inactive: 67%. For `CCOC(=O)c1cc(S(=O)(=O)N2CCN(c3ccccc3F)CC2)[nH]n1`, the survival was active: -6%.

In the case of `Cc1nc2ccc(S(=O)(=O)N(C)CC(=O)Nc3cccc(C(F)(F)F)c3)cc2s1`, the survival is inactive: 88%. In the case of `CCCCN(CC)CCCNC(=O)Nc1sc2nc3n(c(=O)c2c1C)CCC(C)CC3` (stereo not drawn), the survival was inactive: 137%.

Consider `CC(NC(=O)C1CCN(c2nc3ccccc3nc2C(F)(F)F)CC1)c1ccccc1` (stereo not drawn), for which the survival is inactive: 32%. Consider `CCCCNC(=O)c1cccc(-n2c(C)nc3cccnc32)c1`, for which the survival was inactive: 73%. To `Fc1ccc2c(c1)-c1nc(-c3ccccc3)cc(-c3ccccc3)c1CO2` belongs inactive: 72%; to `CCN(CC)S(=O)(=O)N1CCN(S(=O)(=O)N2CCOCC2)CC1`, inactive: 118%.

Regarding `Cc1c(NC(=O)Nc2ccccc2C(F)(F)F)sc2nc3n(c(=O)c12)CCC(C)CC3` (stereo not drawn), the survival is inactive: 92%.

With `COc1ccc(N(C(=O)c2cccc(C)c2)S(=O)(=O)c2ccc(Cl)cc2)cc1`, the survival is inactive: 78%.

Consider `CC(C)CCNC(=O)c1cnc2sc(N3CCCCC3)nn2c1=O`, for which the survival was inactive: 92%. Regarding `CCOc1cc(C(=O)N2CCn3c4c(c5cc(C)ccc53)CCCC42)cc(OCC)c1OCC` (stereo not drawn), the survival was inactive: 67%.

For `C=CCN1C(=O)C2C(C(=O)NCc3ccccc3)C3C=CC2(O3)C1C(=O)NC(C)(C)C` (stereo not drawn), the survival is inactive: 100%. Take `Cn1c(=O)n(C)c2cc(/C=C(\C#N)C(N)=C(C#N)C#N)ccc21`: the survival is inactive: 118%. To `O=C(CCc1nc(-c2cccs2)no1)Nc1cccc([N+](=O)[O-])c1` belongs inactive: 44%; to `CCOc1ccc(-c2ccc(NS(=O)(=O)c3ccc(C)cc3)cc2)nn1`, inactive: 77%. For `Cc1cccn2c(=O)c(/C=C(\C#N)c3nc4ccccc4[nH]3)c(Oc3ccc(C(C)(C)C)cc3)nc12`, the survival was inactive: 83%. To `COc1ccc(CCCc2nnc(SCC(=O)Nc3ccc(C)cc3)o2)cc1` belongs inactive: 72%; to `COc1ccc(C(=O)c2ccc(OC)cc2OC)c(OC)c1`, inactive: 114%; to `COc1ccc(CN(CCN2CCOCC2)C(=O)c2cc3sccc3n2Cc2ccccc2)cc1`, inactive: 151%. Turning to `Cc1ccc(C)c(N2CCN(C(c3ccccc3)c3nnc(-c4ccccc4F)o3)CC2)c1` (stereo not drawn), the survival was inactive: 53%. To `Cc1ccc(C)c(N2CCN(CCCNC(=O)c3cnn(-c4ccccc4Cl)c3C3CCN(C(=O)OC(C)(C)C)CC3)CC2)c1` belongs inactive: 81%. Turning to `Cc1ccc(C(=O)Nc2sc3c(c2C(=O)NCc2ccco2)CCC(C(C)(C)C)C3)cc1` (stereo not drawn), the survival is inactive: 70%. Take `O=C(NCc1ccc(F)cc1)c1cc2n(n1)CCCN(Cc1ccc(F)cc1)C2=O`: the survival was inactive: 86%.

Consider `Cc1ccc(OCC(=O)OCc2cc(=O)n3nc(-c4cccs4)sc3n2)cc1C`, for which the survival was inactive: 73%. As for `Cc1cc(C)c(NC(=O)Cn2c(=O)n(-c3ccc(CC(=O)NCC4CCCO4)cc3)c(=O)c3ccccc32)c(C)c1` (stereo not drawn), the survival was inactive: 110%. To `Cc1ccc(-c2nc3n(n2)C(=O)CC(c2ccc(Cl)cc2)S3)cc1` (stereo not drawn) belongs inactive: 89%; to `Cc1ccc(C(=O)Nc2ccc(NC(=O)c3cccs3)cc2)cc1C`, inactive: 88%. To `Cc1cc(Cl)ccc1NC(=O)C(=O)NCc1ccco1` belongs inactive: 130%.

`CCOc1ccc(Sc2cc(C(=O)NC(C)c3ccccc3)c3ccccc3n2)cc1` (stereo not drawn): the survival was inactive: 83%.

In the case of `Cc1ccsc1CN(C(=O)COc1ccc(Br)cc1)C1CCS(=O)(=O)C1` (stereo not drawn), the survival was inactive: 90%. To `Cc1ccc(OCC(=O)Nc2cc3nn(-c4ccccc4)nc3cc2C)cc1` belongs inactive: 91%; to `CCOc1ccccc1NC(=O)Cn1cc(C(=O)c2cccc(OC)c2)c(=O)c2ccc(C)nc21`, inactive: 73%; to `O=C(Cn1c(=O)c2cccn2c2ccccc21)NCCc1ccccc1`, inactive: 89%. As to `COc1ccc(NC(=O)Cn2c(SCc3cc(C)ccc3C)nc3ccncc32)c(OC)c1OC`, the survival is inactive: 75%. Regarding `Cc1c(CCNC(=O)c2ccc(Br)o2)sc2nc(-c3ccc(F)cc3)nn12`, the survival was inactive: 75%. Take `COc1ccc2c(CNCc3cccs3)c(C(=O)O)n(Cc3ccccc3)c2c1`: the survival is inactive: 84%.

As for `O=C(CSc1nnc(CNC(=O)c2cccc(F)c2)n1-c1ccccc1)Nc1ccccc1F`, the survival is inactive: 65%. Consider `Cc1ccc(NC(=O)Cn2cnc3sc(C(=O)O)c(C)c3c2=O)cc1Cl`, for which the survival was inactive: 80%. In the case of `CCN1CCN(c2nc3c(S(=O)(=O)c4ccc(Br)cc4)nnn3c3ccsc23)CC1`, the survival was inactive: 116%.

For `COc1cc(NC(=O)CN(c2ccc(C)cc2)S(=O)(=O)c2cccc3nonc23)cc(OC)c1`, the survival is inactive: 79%.

With `CCc1cccc(NC(=O)CSC2=Nc3ccccc3N=C(c3ccc(F)cc3)C2)c1`, the survival was inactive: 131%. Take `CCOc1ccccc1C(=O)Nc1ccc(S(=O)(=O)Nc2nc(C)cc(C)n2)cc1`: the survival was inactive: 94%.

`COc1ccc2c(c1)c1c(c(=O)n(Cc3ccccc3)c(=O)n1CC(=O)NCc1ccccc1Cl)n2C`: the survival is inactive: 76%.

On to `O=C(c1c(F)cccc1F)N1CCCC(c2nc(-c3cccs3)no2)C1` (stereo not drawn), for which the survival is inactive: 109%.

On to `Fc1ccc(-c2noc3ncnc(NCCc4ccccc4)c23)cc1`, for which the survival was inactive: 64%.

With `CCOc1ccc(-c2nonc2NC(=O)COc2c(C)cc(C)cc2C)cc1OCC`, the survival was inactive: 110%. `CCCCCn1c(C(C)NC(=O)c2ccccc2)nc2ccccc21` (stereo not drawn): the survival was inactive: 77%. Take `COc1ccc(Nc2nc(-c3ccc(C)cc3)nc3ccccc23)c(OC)c1`: the survival is inactive: 70%. For `CCc1nn(CC(=O)NCCc2ccc(OC)cc2OC)c(=O)c2cc3c(OC)cccc3n12`, the survival is inactive: 98%. Take `CCOc1cc(CNC(=O)C2COc3ccccc3C2)cc(OCC)c1OCC` (stereo not drawn): the survival was inactive: 73%.

As for `COc1ccc(-c2nc(C)c(CCNC(=O)C(=O)Nc3ccccc3OC)s2)cc1`, the survival was inactive: 67%. Turning to `O=C(NC1CCN(Cc2nnnn2Cc2ccc3c(c2)OCO3)CC1)c1ccccc1F`, the survival is inactive: 90%. For the compound `O=C(NCCc1ccccc1Cl)c1ccc(Cn2c(=O)c3cccn3c3cccnc32)cc1`, the survival was inactive: 77%. To `Cc1ccccc1N1CC(c2nc3ccccc3n2CCC2CCCCC2)CC1=O` (stereo not drawn) belongs active: 12%.

In the case of `COc1ccc(CCn2cc3c(c2-c2ccc(Br)cc2)c(=O)n(C)c(=O)n3C)cc1OC`, the survival is inactive: 84%. As for `Cc1ccc(C(C)C)c(OCC(=O)NCC2(N(C)C)CCCCC2)c1`, the survival is inactive: 98%. With `Cc1ccccc1C(=O)n1nc(-c2ccco2)nc1NCc1ccc(Cl)cc1`, the survival is inactive: 87%. In the case of `Cc1ccc(C)c(N2CCN(C(=O)C3CCCN(S(=O)(=O)c4ccc5c(c4)oc(=O)n5C)C3)CC2)c1` (stereo not drawn), the survival was inactive: 85%. As to `Cc1ccc(-c2nnc(SCc3ccccc3C)o2)cc1`, the survival was active: -4%.

On to `CCc1ccccc1NC(=O)c1c(NC(=O)c2ccccc2)sc2c1CCCC2`, for which the survival is inactive: 60%.

Take `CCOC(=O)C1CCC(CN(Cc2cccc(Br)c2)S(=O)(=O)c2ccc(C)cc2)CC1` (stereo not drawn): the survival is inactive: 127%. `CCc1ccc(C(=O)c2cn(CC(=O)Nc3ccc4c(c3)OCO4)c3cc(OC)c(OC)cc3c2=O)cc1`: the survival was inactive: 107%. As for `COc1ccc(S(=O)(=O)Nc2ccc3c(c2)N(C(C)=O)CCC3)cc1F`, the survival is inactive: 58%. For the compound `O=C(COc1ccc(Cl)cc1)Nc1ccc(-c2nc3ccccc3s2)c(O)c1`, the survival is inactive: 74%. Take `COc1ccc(OC)c2sc(N3CCN(C(=O)C(C)(C)C)CC3)nc12`: the survival was inactive: 69%. To `COc1cc(-c2cc(OC)c3c(C)oc(C)c3c(=O)c2)ccc1OC(=O)c1ccccc1Cl` belongs inactive: 94%; to `COc1cc(Cl)c(NC(=O)CCS(=O)(=O)c2cc3c(cc2Cl)NC(=O)CO3)c(OC)c1`, inactive: 59%.

On to `COC(=O)CNc1nc(C2CC2)nc2c1nnn2Cc1ccccc1Cl`, for which the survival was inactive: 107%.

As to `Cc1ccc2nc(N3CCN(c4cccc(Cl)c4)CC3)c(-n3nc(C)cc3C)nc2c1`, the survival is active: 3%. For `CC(=O)Nc1ccc(S(=O)(=O)Nn2cnnc2)cc1`, the survival was inactive: 113%.

Take `CCOC(=O)C1=C(CN2CCC(C)CC2)NC(=O)NC1c1ccc(F)cc1` (stereo not drawn): the survival was inactive: 45%.

Turning to `Cc1cc(C)c2c(=O)cc(CSCC(=O)Nc3ccccc3Cl)[nH]c2c1`, the survival was inactive: 73%. For the compound `Cc1ccc(-c2cc3ncc4c(n3n2)-c2cc(C)ccc2OC4)cc1`, the survival is inactive: 78%. For `O=C(O)CSCC(=O)Nc1cccc2ccccc12`, the survival is inactive: 102%. With `COc1ccc(CNC(=O)c2ccc(N3CCCC3)c(NC(=O)NCc3ccc(F)cc3)c2)cc1`, the survival was inactive: 66%. On to `Cc1ccc(N2C(=O)CSC23C(=O)N(CC(=O)NCc2ccccc2)c2ccccc23)cc1C` (stereo not drawn), for which the survival was inactive: 74%. On to `CNC(=O)c1c(NC(=O)c2ccc(S(=O)(=O)N3CCC(C)CC3)cc2)sc2c1CCC2`, for which the survival is inactive: 129%.

Take `Cc1cccc(C)c1OCC(=O)NCC1(N(C)C)CCCCC1`: the survival is inactive: 88%. As for `COc1ccccc1CNC(=O)C1CCC(CNS(=O)(=O)c2ccc3c(c2)CCCC(=O)N3)CC1` (stereo not drawn), the survival was inactive: 88%. To `COCCCNC(=O)c1ccc(NC(=O)c2nsc3ccccc23)cc1` belongs inactive: 84%; to `CS(=O)(=O)c1ccc(-c2nnc(NC(=O)c3ccc4c(c3)OCCO4)o2)cc1`, inactive: 75%; to `CCN(CC)CCNC(=O)c1ccc(Cn2c(SCc3ccccc3)nc3cccnc32)cc1`, inactive: 88%.
